# Some of the results follow. Repeats are few or missing, and single values can be far off.
# Test system: HeLa VPS33A KO + NLuc-VPS33A R498W
# Assay: relative mutant VPS33A R498W amount (NanoLuc luminescence) vs DMSO (fraction of DMSO); HeLa model of a glycosaminoglycan (GAG) storage disease; KI is knock-in and KO knock-out; SDC1 is syndecan 1; higher = higher mutant VPS33A level
# Conditions: 50 µM; 24 h
# 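Also: screen of an FDA-approved drug library, NanoLuc luminescence read after lysing the treated cells, taken as a measure of mutant VPS33A protein stability.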
row,Structure (SMILES),relative mutant VPS33A R498W amount
1,CCCCOc1cc(C(=O)NCCN(CC)CC)c2ccccc2n1 [Dibucaine],0.831
2,NCCC(=O)O [beta-Alanine],0.96
3,COc1ccc2[nH]c([S@@+]([O-])Cc3ncc(C)c(OC)c3C)nc2c1 [Esomeprazole Magnesium],0.856
4,CCOc1cc(CC(=O)N[C@@H](CC(C)C)c2ccccc2N2CCCCC2)ccc1C(=O)O [Repaglinide],0.338
5,CC1=C(C/C=C(\C)CCC[C@H](C)CCC[C@H](C)CCCC(C)C)C(=O)c2ccccc2C1=O [Vitamin K1],0.683
6,CC(C)C(=O)OCC(=O)[C@@]12O[C@H](C3CCCCC3)O[C@@H]1C[C@H]1[C@@H]3CCC4=CC(=O)C=C[C@]4(C)[C@H]3[C@@H](O)C[C@@]12C [Ciclesonide],0.534
